# Hit rate of the full screen: of about 360,000 compounds, about 16,000 (4.4%) were called active. Inconclusive means that the source gave no clear call. Such entries were picked first, then a sample of the others. The call rests on the fitted dose curve; in most records, active means well fitted inhibition curve with a large enough effect; inconclusive means small, poorly fitted or top-dose-only effect; inactive means no such curve, though single readings can be large or run the other way. Potencies of inconclusive entries are doubtful fits and often do not repeat.
# Molecular target: Bromodomain adjacent to zinc finger domain protein 2B (Homo sapiens) (UniProt Q9UIF8)
# Assay: qHTS Assay for Inhibitors of BAZ2B; further: nearly all actives have a fitted effect of over 60% in size
# Conditions: AlphaScreen BAZ2B-H3K14Ac peptide displacement; activity change, negative = inhibition: at 114 µM (top of the series)
# Method in brief: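 Protein-peptide AlphaScreen: BAZ2B 50 nM, b-H3K14Ac 50 nM, 1x PBS pH 7.4 + 0.01% Tween-20. Preincubation 30 min RT; cpd 30 min RT (top 110 uM); beads 20 min RT, light-protected.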
# On the % scale 0 is the no-effect control and ±100 the full control effect; potency means the concentration at half of the fitted maximal effect; tags describe the fitted curve by direction and shape.
# UniProt Q9UIF8, sequence (Q9UIF8 whole entry, looked up, the tested form may be a part): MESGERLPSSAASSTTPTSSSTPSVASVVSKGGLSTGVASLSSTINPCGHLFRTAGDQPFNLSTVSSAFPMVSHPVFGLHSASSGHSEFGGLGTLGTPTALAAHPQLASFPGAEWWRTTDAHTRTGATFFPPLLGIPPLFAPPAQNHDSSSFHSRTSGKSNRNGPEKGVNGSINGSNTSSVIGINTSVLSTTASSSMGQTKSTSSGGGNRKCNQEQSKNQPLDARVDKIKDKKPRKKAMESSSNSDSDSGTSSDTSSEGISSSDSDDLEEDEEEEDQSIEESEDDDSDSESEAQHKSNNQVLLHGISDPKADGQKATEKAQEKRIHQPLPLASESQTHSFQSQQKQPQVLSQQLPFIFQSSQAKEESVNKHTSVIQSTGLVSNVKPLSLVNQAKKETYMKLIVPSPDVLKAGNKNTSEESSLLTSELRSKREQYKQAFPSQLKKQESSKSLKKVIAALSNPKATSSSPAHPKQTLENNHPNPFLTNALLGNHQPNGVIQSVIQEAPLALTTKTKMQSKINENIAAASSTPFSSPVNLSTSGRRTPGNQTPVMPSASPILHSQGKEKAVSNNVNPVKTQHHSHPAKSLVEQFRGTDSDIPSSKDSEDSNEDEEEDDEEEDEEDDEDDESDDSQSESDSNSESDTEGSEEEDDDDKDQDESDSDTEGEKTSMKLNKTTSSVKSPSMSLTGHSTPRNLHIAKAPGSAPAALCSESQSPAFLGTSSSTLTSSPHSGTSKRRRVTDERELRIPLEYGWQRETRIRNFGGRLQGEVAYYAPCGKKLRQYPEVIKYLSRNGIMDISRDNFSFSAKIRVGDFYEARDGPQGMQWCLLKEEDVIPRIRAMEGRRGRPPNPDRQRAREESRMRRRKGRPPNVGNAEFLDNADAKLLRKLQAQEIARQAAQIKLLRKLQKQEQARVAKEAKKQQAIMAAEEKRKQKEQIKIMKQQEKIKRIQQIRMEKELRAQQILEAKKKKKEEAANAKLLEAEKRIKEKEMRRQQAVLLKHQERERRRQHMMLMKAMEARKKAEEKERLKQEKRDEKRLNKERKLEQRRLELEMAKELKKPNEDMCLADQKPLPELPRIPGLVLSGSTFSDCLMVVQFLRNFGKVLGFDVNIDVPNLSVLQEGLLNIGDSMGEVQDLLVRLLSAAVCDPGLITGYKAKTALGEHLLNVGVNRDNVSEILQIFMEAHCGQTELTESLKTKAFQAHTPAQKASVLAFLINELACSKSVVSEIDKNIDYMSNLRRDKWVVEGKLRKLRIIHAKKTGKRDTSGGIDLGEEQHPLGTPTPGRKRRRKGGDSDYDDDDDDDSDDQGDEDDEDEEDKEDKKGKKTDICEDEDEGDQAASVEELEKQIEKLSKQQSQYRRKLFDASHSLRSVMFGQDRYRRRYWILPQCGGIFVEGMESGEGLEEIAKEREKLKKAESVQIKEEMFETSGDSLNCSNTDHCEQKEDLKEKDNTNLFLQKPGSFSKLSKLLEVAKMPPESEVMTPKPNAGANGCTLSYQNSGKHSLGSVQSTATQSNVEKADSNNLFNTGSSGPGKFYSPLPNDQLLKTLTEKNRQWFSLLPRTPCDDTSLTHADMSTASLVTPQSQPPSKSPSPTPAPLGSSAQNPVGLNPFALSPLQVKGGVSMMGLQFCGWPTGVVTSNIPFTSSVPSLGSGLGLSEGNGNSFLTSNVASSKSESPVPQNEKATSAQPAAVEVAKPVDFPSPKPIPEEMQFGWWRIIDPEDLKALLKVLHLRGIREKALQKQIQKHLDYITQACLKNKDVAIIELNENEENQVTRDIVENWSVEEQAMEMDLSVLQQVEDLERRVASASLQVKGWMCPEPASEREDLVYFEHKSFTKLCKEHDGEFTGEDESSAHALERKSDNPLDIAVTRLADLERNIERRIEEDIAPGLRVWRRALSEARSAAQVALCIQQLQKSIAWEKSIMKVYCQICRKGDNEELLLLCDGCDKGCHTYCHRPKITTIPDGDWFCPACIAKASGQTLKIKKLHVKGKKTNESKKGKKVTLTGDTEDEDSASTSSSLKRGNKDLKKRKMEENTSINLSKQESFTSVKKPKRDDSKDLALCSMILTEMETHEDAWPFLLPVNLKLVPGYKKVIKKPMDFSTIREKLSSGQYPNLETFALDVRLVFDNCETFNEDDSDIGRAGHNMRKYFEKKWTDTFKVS
SMILES,Potency,"activity change, negative = inhibition"
Cc1ccc(C2c3[nH]c4ccccc4c3CCN2C(=O)c2ccc(N(C)C)cc2)cc1 (stereo not drawn),"inconclusive: 12.6 µM [inhibitor, full curve]",–
O=S(=O)(Nc1nc2ccccc2nc1-[n+]1cccc(N=C([O-])c2ccc(Cl)cc2)c1)c1ccccc1,"inconclusive: 79.4 µM [inhibitor, single point]",–
COc1ccc(C(=O)NNC(=O)c2cc3cc(OC)ccc3oc2=O)cc1,"inconclusive: 39.8 µM [inhibitor, single point]",–
COc1cccc(NC(=O)c2sc3nc(C)c(C(=O)Nc4ccc(C)cc4C)c(-c4ccc(Br)cc4)c3c2N)c1,–,inactive: 10.2%
O=C(CCc1ccccc1)Nc1ccnn1C1CCN(Cc2ncc[nH]2)CC1,–,inactive: -5.6%
COC(=O)N/N=C/c1ccc(-c2cccc(Cl)c2)o1,"inconclusive: 89.1 µM [inhibitor, single point]",–
O=C(O)c1ccc2c3c(cccc13)C(=O)N(c1cccc3ccccc13)C2=O,–,inactive: -2.15%
COc1ccc(N2CCN(C(=O)c3cc4c(=O)n(Cc5cccs5)ccc4nc3C)CC2)cc1,active: 50.1 µM,–
COc1ccc(CNC(=O)c2cc3sccc3n2C)cc1,–,inactive: -34.9%
CC1(C)CC(=O)C(C=NCCN2CCN(C(=O)C34CC5CC(CC(C5)C3)C4)CC2)=C(O)C1,"inconclusive: 79.4 µM [inhibitor, single point]",–
CC(C)(C)NC(=O)CN(Cc1ccc2c(c1)OCO2)C(=O)CNC(=O)c1cccs1,–,inactive: -28.9%
Cc1cc(=O)[nH]c(N/N=C/c2ccc(C)o2)n1,–,inactive: -4.01%
O=C(O)c1cccc(-n2cccc2/C=C/[N+](=O)[O-])c1,active: 31.6 µM,–
O=C(Nc1nnc(-c2ccc(Br)cc2)o1)c1cccc(N2C(=O)CCC2=O)c1,active: 70.8 µM,–
O=C1C=C(c2ccccc2)OC(c2ccccc2)O1 (stereo not drawn),active: 50.1 µM,–
Cc1sc2nc(C(C)Nc3ccccc3N3CCOCC3)[nH]c(=O)c2c1C (stereo not drawn),"inconclusive: 44.7 µM [inhibitor, partial curve]",–
CCOC(=O)c1c(C)[nH]c(C)c1S(=O)(=O)N(C)CC(=O)Nc1cc(Cl)ccc1OC,–,inactive: -8.12%
O=C(O)Cn1c2c(c3ccccc31)CSc1ccc(Cl)cc1-2,"inconclusive: 79.4 µM [inhibitor, single point]",–
Cn1c(SCc2ccccc2)nnc1-c1ccncc1,–,inactive: -10.7%
CN(C)CCOc1ccc2ccccc2c1,active: 44.7 µM,–
COc1ccc(C(=O)CSc2nnc(-c3ccccn3)n2Cc2ccco2)cc1,"inconclusive: 89.1 µM [inhibitor, single point]",–
CC(Oc1ccc(Cl)cc1Cl)C(=O)Nc1ccc(O)cc1 (stereo not drawn),active: 50.1 µM,–
Nc1cc(Cl)ccc1N1CCCC1,"inconclusive: 89.1 µM [inhibitor, single point]",–
COc1ccc(N2CCN(C(=O)c3ccc(Br)cc3)CC2)c([N+](=O)[O-])c1,active: 25.1 µM,–

SMILES,Potency,"activity change, negative = inhibition"
NNC(=O)c1sc2cc(C(F)(F)F)cnc2c1-c1ccccn1,"inconclusive: 79.4 µM [inhibitor, partial curve, poor fit]",–
O=C(O)c1cc(N/N=C/c2ccc(N3CCOCC3)s2)ccc1Cl,active: 50.1 µM,–
Cc1cc(NC(=O)Cn2c(=O)n(CCCCC(=O)NC3CCN(Cc4ccccc4)CC3)c(=O)c3ccccc32)n[nH]1,"inconclusive: 89.1 µM [inhibitor, single point]",–
CN1CCN(C(=S)c2cn(Cc3ccccc3F)c3ccccc23)CC1,"inconclusive: 44.7 µM [inhibitor, partial curve]",–
Cc1ccc(CNC(=O)CSc2nc3ccsc3c(=O)n2-c2ccc(C(=O)O)cc2)cc1,–,inactive: -1.32%
CCCn1cnc2cc(NCc3cccc(OC)c3O)ccc21,"inconclusive: 79.4 µM [inhibitor, single point]",–
N#Cc1nc(Cc2cccc3ccccc23)oc1NCCCN1CCOCC1,"inconclusive: 44.7 µM [inhibitor, partial curve]",–
COc1ccc(C2NC(C(=O)O)Cc3c2[nH]c2ccccc32)cc1CN1CCN(c2ccc(F)cc2)CC1 (stereo not drawn),"inconclusive: 39.8 µM [inhibitor, partial curve]",–
COc1ccc(C(NC(C)=O)c2cc(Cl)c3cccnc3c2O)cc1OC (stereo not drawn),active: 28.2 µM,–
CCOc1ccc(CNC(=O)c2cnc(SC)nc2CC)cc1,–,inactive: 3.28%
COc1cc2c(ccc3cc(OC)c(OC)c(O)c32)cc1O,active: 7.08 µM,–
Cc1cccc(C(=O)Nc2ccc(S(=O)(=O)N3CCOCC3)cc2C)c1,"inconclusive: 89.1 µM [inhibitor, single point]",–
COc1cc(CNc2ccc3[nH]c(=O)[nH]c3c2)ccc1OCc1ccccc1C,–,inactive: -29.2%
CNC(=S)N/N=C(\C)c1ccc(C(C)(C)C)cc1,"inconclusive: 44.7 µM [inhibitor, partial curve]",–
O=C(O)c1ccc(S(=O)(=O)N(CCc2ccccc2)Cc2ccc(Cl)cc2)cc1,"inconclusive: 79.4 µM [inhibitor, partial curve]",–
COc1ccc(CN2C(=NC(=O)COc3ccccc3)SC3CS(=O)(=O)CC32)cc1 (stereo not drawn),"inconclusive: 0.631 µM [inhibitor, full curve, poor fit]",–
COC(=O)/C(C#N)=C/c1c(N2CCN(c3ccccc3)CC2)nc2c(C)cccn2c1=O,–,inactive: -38.5%
Cc1ccc(S(=O)(=O)n2cnc3cc([N+](=O)[O-])ccc32)c(C)c1C,"inconclusive: 89.1 µM [inhibitor, single point]",–
CCN(CC)S(=O)(=O)c1ccc(NCC2COc3ccccc3O2)c([N+](=O)[O-])c1 (stereo not drawn),"inconclusive: 28.2 µM [inhibitor, partial curve]",–
COc1ccc(S(=O)(=O)N2CCN=C2SCc2cccc(C)c2)cc1,–,inactive: 22.2%
CC1CCCCN1C(=O)CSc1nc2ccccc2nc1Cc1ccc(Cl)cc1 (stereo not drawn),–,inactive: 3.74%
CCC(C(=O)OCC(=O)c1ccc(OC)cc1OC)c1ccccc1 (stereo not drawn),"inconclusive: 89.1 µM [inhibitor, single point]",–
CC(=O)NC(c1ccco1)c1cc(Cl)c2ccc(N(C)C)nc2c1O (stereo not drawn),active: 50.1 µM,–
Fc1ccc(C2c3cccn3CCN2C(=S)Nc2cccc(F)c2)cc1 (stereo not drawn),"inconclusive: 50.1 µM [inhibitor, partial curve]",–
